According to paper PMC10668032:
The list shows a part of the results. At the low end of the ranking, values are background and their order means little.

The sequences below were run against SIX1 homeodomain (reference allele) (UniProt Q15475) (assay: universal protein binding microarray). Conditions: Universal all-10-mer PBM (8x60K, AMADID 030236), 300 nM GST-tagged protein, Alexa Fluor 488 anti-GST; buffer, salt, pH and temperature not stated; high values mean tight binding; most listed sequences are background and not binding sites; double strand, one strand shown.

Sequence	binding signal [E-score]
CAATTAAA	-0.091
ATCACTTA	0.273
AACACGAT	0.176
CAGTATAC	0.295
CGACTGAA	-0.156
CCGCCAGC	-0.105
CCGCATGA	-0.0385
CTTTAGTA	-0.048
AATGTTCG	-0.175
ACTCCTAA	-0.00136
CCATCCGG	0.235
CGGAGTAA	0.0438
CAGAGCGA	-0.0744
CTTTACAC	0.0513
ACGAGCGC	-0.215
GCACTATA	0.17
GCACAAGA	-0.137
GCGCCCCA	-0.156
CATGCAGA	-0.0909
GAACCGGA	0.0927
ATTGCCTC	0.118
AGCCGGCA	-0.261

Sequence	binding signal [E-score]
ATCCTGGA	0.284
CGACTAGA	-0.0874
TACGACAA	0.107
CATAATGA	0.0842
CCGTCAGG	-0.159
ACCGAGAT	0.265
ATAGACTC	0.0181
ACGTGCGA	-0.0617
GTAAACAA	0.0393
GATCGACA	0.115
AAGGCCCC	-0.166
ACGAGGTC	-0.108
ACGCACTC	-0.203
CCGCACAA	0.0576
CCATTTGA	-0.0936
CACAAAAG	0.0396
CCGTTCTC	-0.0683
GGCCATTA	-0.118
GCGGGCAC	-0.01
CCATGCCC	-0.0766
ACCACCCG	0.0243
CAATATCG	0.296

Sequence	binding signal [E-score]
ACAAGTAT	0.247
AGGACTAG	-0.0994
CGATGGGA	-0.0469
CCCTGGCA	0.0089
CAGTGAGG	-0.0897
AAAATTAA	-0.162
ACACTTGA	-0.0787
AGGCCACC	-0.182
AAACTGAT	0.149
CGAGAGAA	-0.117
CCAAAAGA	0.0162
AGAGTCCG	-0.188
GATTAGTA	0.149
CGATAAGA	0.124
GGGGGCAA	-0.285
CGTTTTTA	-0.118
AGCTTAGG	-0.115
AAGATACC	0.426
AACCGATA	0.41
AGCTGGTG	0.0343
CCTGTGGA	0.0586
CTGTGTGC	-0.142

Sequence	binding signal [E-score]
ACGTACGA	-0.231
AACTCAAC	-0.0659
CGGAAGTC	-0.0905
CCCCTCTC	0.161
TGACGCAA	-0.159
GGAGGAAA	-0.134
GCACAAAA	-0.232
GACCTAAC	-0.0985
AAACAACG	-0.086
GCTGGTTA	-0.279
CATGTGCG	-0.0911
AATCTATA	0.167
ACGTAATA	0.16
CCGGCTAC	-0.0626
GAAACCCA	0.096
ATGTAAGA	0.0514
GATAAGCA	0.172
CCCTGGCC	0.0892
AGCCGCCC	0.0227
CGGTAGAG	0.0841
ACTTAAAG	-0.16
ATCCGCGC	0.292

Sequence	binding signal [E-score]
TCGCATAA	0.0663
AGGCTAGG	-0.106
AGAGACGG	0.102
GAAGTTAC	-0.108
GTCGAGAC	0.106
ACTAGAAA	-0.298
CTTCTAGC	-0.226
AGCCACAA	-0.177
AAAGAACA	-0.174
CAGTCTAA	-0.0571
CGGCTAAG	-0.0262
ATGACTGA	-0.0432
CTACCCCC	0.0291
GATTTCCC	-0.107
CAGTGAGC	0.0565
ACTGAGAC	0.0937
CTGGCCTC	-0.0549
AACATTCT	-0.251
CGCTTTGC	-0.207
TACCTCAA	-0.0245
CGCAAGAG	-0.093
CGCAAAAG	-0.231
